Ends that are not written are not given here.
Experiments:
[1] = target: T1, cynomolgus monkey CCR8 (Chinese origin) (cynomolgus monkey, UniProt O97665 1-356 (rhesus entry)); experiment: flow cytometry, CHO cells expressing cynomolgus CCR8
T1 construct: on transfected CHO cells; also called cyno CCR8; Cy CCR8

[2] = target: T2, human CCR8 (human, UniProt P51685 1-355); experiment: cell-based or functional assay
[3] = target: human CCR8 isoform A27G (human, UniProt P51685 1-355); experiment: cell-based or functional assay
[4] = target: T2, human CCR8; experiment: flow cytometry, HuT 78 CD3E-knockout cells, 100 nM TCE after 200 nM CCL1 (competitor)
[5] = target: T2, human CCR8; experiment: cell-based or functional assay; remark: listed apart in the source
[6] = target: T3, cynomolgus monkey CCR8 (T4R), Mauritian origin (cynomolgus monkey, UniProt O97665 1-356 (rhesus entry)); experiment: flow cytometry, CHO cells expressing cynomolgus CCR8 (T4R)
T3 construct: also called cy CCR8 (T4R); Cy CCR8 (T4R)
T3 chain: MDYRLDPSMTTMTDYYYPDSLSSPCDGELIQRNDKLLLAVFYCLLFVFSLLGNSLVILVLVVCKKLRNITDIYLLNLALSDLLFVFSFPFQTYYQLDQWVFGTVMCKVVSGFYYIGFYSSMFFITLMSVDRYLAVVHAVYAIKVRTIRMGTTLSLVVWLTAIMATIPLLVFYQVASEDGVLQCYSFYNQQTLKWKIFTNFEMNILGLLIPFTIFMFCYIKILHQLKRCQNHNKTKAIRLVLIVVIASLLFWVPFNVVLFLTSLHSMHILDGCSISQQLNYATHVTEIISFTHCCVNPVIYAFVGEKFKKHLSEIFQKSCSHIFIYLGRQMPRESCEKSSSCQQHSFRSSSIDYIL

[7] = target: T2, human CCR8; experiment: flow cytometry, HuT 78 CD3E-knockout cells, 100 nM TCE, no CCL1
[8] = target: T2, human CCR8; experiment: flow cytometry, HuT 78 CD3E-knockout cells, competitor CCL1 200 nM
[9] = target: T4, CCR8 P_1-12 peptide construct (human, not fully specified (C-terminus); also: BAP biotinylated in vivo, fused construct pieces' sequences not given here); experiment: flow cytometry, peptide construct on streptavidin beads, 5 µg/mL
T4 construct: coupled to streptavidin beads; not shown: G4S linker, V5 tag, G4S linker, chicken albumin, then FLAG tag, BAP and H3G each via SG linker
T4 chain: MDYTLDLSVTTV

[10] = target: T5, CCR8 P_19-30 peptide construct (human, not fully specified (C-terminus); also: BAP biotinylated in vivo, fused construct pieces' sequences not given here); experiment: as above
T5 construct: coupled to streptavidin beads; not shown: G4S linker, V5 tag, G4S linker, chicken albumin, then FLAG tag, BAP and H3G each via SG linker
T5 chain: DIFSSPCDAELI

[11] = target: T6, CCR8 P_13-24 peptide construct (human, not fully specified (C-terminus); also: BAP biotinylated in vivo, fused construct pieces' sequences not given here); experiment: as above
T6 construct: coupled to streptavidin beads; not shown: G4S linker, V5 tag, G4S linker, chicken albumin, then FLAG tag, BAP and H3G each via SG linker
T6 chain: TDYYYPDIFSSP

[12] = target: T7, CCR8 P_1-35 peptide construct (full-length N-terminal peptide of human CCR8) (human, BAP biotinylated in vivo); experiment: as above
T7 construct: from HEK 293 supernatant, coupled to streptavidin beads; not shown: G4S linker, V5 tag, G4S linker, chicken albumin, then FLAG tag, BAP and H3G each via SG linker

[13] = target: T8, CCR8 P_7-18 peptide construct (human, not fully specified (C-terminus); also: BAP biotinylated in vivo, fused construct pieces' sequences not given here); experiment: as above
T8 construct: coupled to streptavidin beads; not shown: G4S linker, V5 tag, G4S linker, chicken albumin, then FLAG tag, BAP and H3G each via SG linker
T8 chain: LSVTTVTDYYYP

[14] = target: T9, CCR8 P_25-35 peptide construct (human, not fully specified (C-terminus); also: BAP biotinylated in vivo, fused construct pieces' sequences not given here); experiment: as above
T9 construct: coupled to streptavidin beads; not shown: G4S linker, V5 tag, G4S linker, chicken albumin, then FLAG tag, BAP and H3G each via SG linker
T9 chain: CDAELIQTNGK

[15] = target: T1, cynomolgus monkey CCR8 (Chinese origin); experiment: cyno Kd divided by human Kd
[16] = target: T3, cynomolgus monkey CCR8 (T4R), Mauritian …; experiment: cyno (T4R) Kd divided by human Kd
[17] = target: T2, human CCR8; experiment: flow cytometry, CHO cells expressing human CCR8
[18] = target: T10, human CD3 (human, UniProt P07766); experiment: flow cytometry on HPB-all
T10 construct: whole, on cells; also called CD3e

[19] = target: T2, human CCR8; experiment: flow cytometry on hu CCR8+ CHO
[20] = target: T1, cynomolgus monkey CCR8 (Chinese origin); experiment: cell-based or functional assay
[21] = target: T2, human CCR8; experiment: flow cytometry on HUT-78 (CCR8+/CD3-)
[22] = target: T6, CCR8 P_13-24 peptide construct; experiment: flow cytometry, peptide construct on streptavidin beads
[23] = target: T1, cynomolgus monkey CCR8 (Chinese origin); experiment: flow cytometry on Cy CCR8+ CHO
[24] = target: T3, cynomolgus monkey CCR8 (T4R), Mauritian …; experiment: flow cytometry on Cy CCR8 (T4R)+ CHO
[25] = target: T11, cynomolgus CD3 (cynomolgus, UniProt Q95LI5 22-198); experiment: flow cytometry on LnPx4119
T11 construct: whole, on cells; also called cyno CD3
T11 sequence (Q95LI5 22-198): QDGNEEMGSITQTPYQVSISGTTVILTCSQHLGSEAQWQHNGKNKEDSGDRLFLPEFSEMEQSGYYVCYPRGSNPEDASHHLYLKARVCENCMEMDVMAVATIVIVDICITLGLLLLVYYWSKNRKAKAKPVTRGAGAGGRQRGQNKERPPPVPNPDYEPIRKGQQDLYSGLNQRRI

T10 sequence (P07766 23-207): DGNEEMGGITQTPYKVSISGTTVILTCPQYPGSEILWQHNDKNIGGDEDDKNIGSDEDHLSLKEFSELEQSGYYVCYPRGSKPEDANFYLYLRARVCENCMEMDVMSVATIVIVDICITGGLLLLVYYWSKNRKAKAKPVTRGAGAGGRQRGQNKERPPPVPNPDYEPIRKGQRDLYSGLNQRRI

B1: CCR8 TCE2 scFab × I2E × scFc (bispecific antibody)
chain: QVQLVESGGGVVQPGRSLRLSCAASGFTFSNYGMHWVRQAPGKGLEWVAVISYDGSNKFYADSVKGRFTISRDNSKKTLYLQMSSLRVEDTAVYYCARAGGIGRFDYWGQGTLVTVSSASTKGPSVFPLAPSSKSTSGGTAALGCLVKDYFPEPVTVSWNSGALTSGVHTFPAVLQSSGLYSLSSVVTVPSSSLGTQTYICNVNHKPSNTKVDKKVEPKSCGGGGQGGGGQGGGGQGGGGQGGGGQGGGGQGGGGQGGGGQDFVMTQTPLSLSVTPGQPASISCKYSQSLLHSDGKTYLFWYLQKPGQPPHLLIYEVSNRFSGVPDRFSGSGSGTDFTLKISRVEAEDVGLYYCMQTLKLPLTFGGGTKVEINRTVAAPSVFIFPPSDEQLKSGTASVVCLLNNFYPREAKVQWKVDNALQSGNSQESVTEQDSKDSTYSLSSTLTLSKADYEKHKVYACEVTHQGLSSPVTKSFNRGECSGGGGQEVQLVESGGGLVQPGGSLKLSCAASGFTFNKYAINWVRQAPGKGLEWVARIRSKYNNYATYYADAVKDRFTISRDDSKNTVYLQMNNLKTEDTAVYYCARAGNFGSSYISYWAYWGQGTLVTVSSGGGGQGGGGQGGGGQQTVVTQEPSLTVSPGGTVTIT[about 80 residues not given here]FGSGTKLTVLGGGGCPPCPAPELLGGPSVFLFPPKPKDTLMISRTPEVTCVVVDVSHEEPEVKFNWYVDGVEVHNAKTKPCEEQYGSTYRCVSVLTVLHQDWLNGKEYKCKVSNKALPAPIEKTISKAKGQPREPQVYTLPPSREEMTKNQVSLTCLVKGFYPSDIAVEWESNGQPENNYKTTPPVLDSDGSFFLYSKLTVDKSRWQQGNVFSCSVMHEALHNHYTQKSLSLSPGKGGGGQGGGGQGGGGQGGGGQGGGGQGGGGQCPPCPAPELLGGPSVFLFPPKPKDTLMISRTPEVTCVVVDVSHEEPEVKFNWYVDGVEVHNAKTKPCEEQYGSTYRCVSVLTVLHQDWLNGKEYKCKVSNKALPAPIEKTISKAKGQPREPQVYTLPPSREEMTKNQVSLTCLVKGFYPSDIAVEWESNGQPENNYKTTPPVLDSDGSFFLYSKLTVDKSRWQQGNVFSCSVMHEALHNHYTQKSLSLSPGK
notes: single chain; also called TCE2 scFab (CCR8) x scFv (CD3) x scFc
Kd [1]: 552 nM
#A2 EC50, 48-hour FACS based cytotoxicity assay [2]: 0.29 nM
A27G EC50, 48-hour FACS based cytotoxicity assay [3]: 0.342 nM
Average Median PE, CCL1-treated (+CCL1) [4]: 1550 median PE
EC50, 48-hour FACS based cytotoxicity assay, HUT-78 (CD3+) [5]: 3.51 nM
Kd [6]: 712 nM
Average Median PE, CCL1-untreated (-CCL1) [7]: 2420 median PE
Ratio Average Median PE (+CCL1)/Average (-CCL1) [8]: 0.64 ratio
Median Fluorescence of Sample/Median Fluorescence of Negative Control [9]: 1 ratio
Median Fluorescence of Sample/Median Fluorescence of Negative Control [10]: 1.1 ratio
Median Fluorescence of Sample/Median Fluorescence of Negative Control [11]: 432 ratio
Median Fluorescence of Sample/Median Fluorescence of Negative Control [12]: 814 ratio
Median Fluorescence of Sample/Median Fluorescence of Negative Control [13]: 1 ratio
Median Fluorescence of Sample/Median Fluorescence of Negative Control [14]: 1 ratio
Affinity gap Kdcy/Kdhu CCR8 [15]: 25.1 ratio
Affinity gap Kdcy (T4R)/Kdhu CCR8 [16]: 32.4 ratio
Kd [17]: 21.9 nM

B2: CCR8 TCE1 scFab × I2E × scFc (bispecific antibody)
chain: EVQLVESGGGLVKPGGSLRLSCAASGFTFSNARMGWVRQAPGKGLEWVGRIKSKTEGGTRDYAAPVKGRFTISRDDSKNTLYLQMNSLKTEDTAVYYCTSYSGVWGQGTMVTVSSASTKGPSVFPLAPSSKSTSGGTAALGCLVKDYFPEPVTVSWNSGALTSGVHTFPAVLQSSGLYSLSSVVTVPSSSLGTQTYICNVNHKPSNTKVDKKVEPKSCGGGGQGGGGQGGGGQGGGGQGGGGQGGGGQGGGGQGGGGQEIVMTQSPDSLAVSLGERATINCKSSQSVLYSSNNKNYLAWYHQKPGQSPKLLISWASTRESGVPDRFSGSGSGTDFTLTINSLQAEDVAVYYCQQYYSIPITFGGGTKVEIKRTVAAPSVFIFPPSDEQLKSGTASVVCLLNNFYPREAKVQWKVDNALQSGNSQESVTEQDSKDSTYSLSSTLTLSKADYEKHKVYACEVTHQGLSSPVTKSFNRGECSGGGGQEVQLVESGGGLVQPGGSLKLSCAASGFTFNKYAINWVRQAPGKGLEWVARIRSKYNNYATYYADAVKDRFTISRDDSKNTVYLQMNNLKTEDTAVYYCARAGNFGSSYISYWAYWGQGTLVTVSSGGGGQGGGGQGGGGQQTVVTQEPSLTVSPGGTVTIT[about 80 residues not given here]FGSGTKLTVLGGGGCPPCPAPELLGGPSVFLFPPKPKDTLMISRTPEVTCVVVDVSHEEPEVKFNWYVDGVEVHNAKTKPCEEQYGSTYRCVSVLTVLHQDWLNGKEYKCKVSNKALPAPIEKTISKAKGQPREPQVYTLPPSREEMTKNQVSLTCLVKGFYPSDIAVEWESNGQPENNYKTTPPVLDSDGSFFLYSKLTVDKSRWQQGNVFSCSVMHEALHNHYTQKSLSLSPGKGGGGQGGGGQGGGGQGGGGQGGGGQGGGGQCPPCPAPELLGGPSVFLFPPKPKDTLMISRTPEVTCVVVDVSHEEPEVKFNWYVDGVEVHNAKTKPCEEQYGSTYRCVSVLTVLHQDWLNGKEYKCKVSNKALPAPIEKTISKAKGQPREPQVYTLPPSREEMTKNQVSLTCLVKGFYPSDIAVEWESNGQPENNYKTTPPVLDSDGSFFLYSKLTVDKSRWQQGNVFSCSVMHEALHNHYTQKSLSLSPGK
notes: single chain; also called TCE1 scFab (CCR8) x scFv (CD3) x scFc
Kd [1]: 1.58 nM
#A2 EC50, 48-hour FACS based cytotoxicity assay [2]: 0.0144 nM
A27G EC50, 48-hour FACS based cytotoxicity assay [3]: 0.0157 nM
Average Median PE, CCL1-treated (+CCL1) [4]: 27000 median PE
EC50, 48-hour FACS based cytotoxicity assay, HUT-78 (CD3+) [5]: 0.0469 nM
Kd [6]: 138 nM
Average Median PE, CCL1-untreated (-CCL1) [7]: 27200 median PE
Ratio Average Median PE (+CCL1)/Average (-CCL1) [8]: 1 ratio
mean BL2 of the sample/mean BL2 of the secondary antibody control [18]: 298 ratio
mean BL2 of the sample/mean BL2 of the secondary antibody control [19]: 42 ratio
Median Fluorescence of Sample/Median Fluorescence of Negative Control [9]: 414 ratio
Median Fluorescence of Sample/Median Fluorescence of Negative Control [10]: 1.1 ratio
Median Fluorescence of Sample/Median Fluorescence of Negative Control [11]: 1.1 ratio
Median Fluorescence of Sample/Median Fluorescence of Negative Control [12]: 471 ratio
Median Fluorescence of Sample/Median Fluorescence of Negative Control [14]: 1.1 ratio
#G4 EC50, 48-hour FACS based cytotoxicity assay [20]: 0.00391 nM
Affinity gap Kdcy/Kdhu CCR8 [15]: 1.8 ratio
Affinity gap Kdcy (T4R)/Kdhu CCR8 [16]: 157 ratio
mean BL2 of the sample/mean BL2 of the secondary antibody control [21]: 30 ratio
binding result [22]: no binding (tested: 5 µg/mL)
mean BL2 of the sample/mean BL2 of the secondary antibody control [23]: 196 ratio
Kd [17]: 0.88 nM
mean BL2 of the sample/mean BL2 of the secondary antibody control [24]: 1 ratio
mean BL2 of the sample/mean BL2 of the secondary antibody control [25]: 33 ratio

Reference: US20250129160A1 (Amgen, published 2025)
